Results taken from the supplement of paper PMC10126150.
Sequences with one replicate were seen in a single cluster, so their values are uncertain.

The sequences below were run on ATP (assay: switch fluorescence ratio, 500 uM ATP over buffer (Cy3 cluster intensity, sum of 5 cycles each) (fold (ratio)); higher = stronger signal-on switching upon ATP binding; sequences stand for … in TCGTCGGCAGCGTCAGATGTGTATAAGAGACAGTTTTTTTTTTTTTTTTTTTTTTTTT…TC). Conditions: aptamer strand: ATP DNA aptamer (quencher-CACCTGGGGGAGTATTGCGGAGGAAGG + anchor), 100 nM annealed; ATP concentration: 500 uM; one replicate.
Summary of the method: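 Clusters carrying Cy3-labelled switching strands on a modified Illumina MiSeq flow-cell were annealed to 100 nM quencher-labelled ATP aptamer and imaged in selection buffer. They were imaged again after 15 min with 500 uM ATP at 22 °C, over five buffer/ATP cycles with NaOH stripping and re-annealing in between. For each cluster, the fluorescence ratio is the summed Cy3 intensity of the target cycles divided by that of the buffer cycles, averaged per switch-domain sequence. Clusters outside 100-1000 RFU were left out.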
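Further: ATP exposure 15 min at 22 °C before imaging.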

Sequence	switch fluorescence ratio
ATATTGGTC	1.04
CTTCCGGACT	1.38
GGTGGGAATT	1.03
CGTATAAGGG	0.905
GTTATTTCGA	0.991
TGGGACCAAT	0.965
AACTAGGACT	1.03
GCCTGGGGTG	1.47
ATGTGCTCCA	0.995
AACTCGTATA	0.985
TCCAAGCAAG	1.07
CATTGCTTGA	0.964
GGCGGAGCGT	0.961
GCGTATGAAC	1.01
GTACACTCAC	1.33
TCTTCGAGTT	1.01
GCCGATAAAG	1.01
GGGATGATTA	0.961
CGATTGTAGG	1.04
AAGATGTGGC	1.02
GGAAGACTTT	1
TTGCCCTTGT	0.973
CTTCTAAGAT	0.992
CAGGACAAAC	1.1
TCTATGTCAG	0.973

Sequence	switch fluorescence ratio
AATTCGAGGC	0.95
AGGCCTTAG	0.994
CAACAAGCTT	1.03
TAACATTTTA	0.971
CGCAGTAGTC	1.69
ATACTTTCG	1.06
AATGCAGGTT	0.99
GAGCTCTGCA	1.06
AAATCAGGGG	1.17
ACTGTTGAGC	0.988
GCTTGGCATT	0.992
GCGGGATGAC	1.02
TCAGTGTATT	0.98
CAAGCTAGA	0.999
GCTATCAGGT	1.02
CCCGGGGTC	1
CTATTGCTAG	0.989
CTCAAATTTT	1.01
TTACATGGGT	1.01
CCCTCCCGGA	1.06
GCTGGACCGT	0.99
TGCGCGACCG	1.02
TTTTCTTTGA	1.02
ATGGAATACA	1.04
TTTATATAGC	1

Sequence	switch fluorescence ratio
GTGCAAAAAG	0.966
GCAGGCCGTT	0.984
TATATGTCGA	0.992
TTTAGCGTAG	1.01
GCTGCAAGTG	1.01
AGTACAGCCA	1.08
CTGCGATGAA	1.02
CGGTACATGG	1.03
GCCCCAAAAT	0.983
CTCTTCTTTG	0.976
GAGGAGTGGG	0.997
ATAATTCCGT	0.99
TGAGCGAGAT	1.07
ATGCGACGGG	1.01
AGTCCACGGA	1.03
AAGCTCGGTC	0.976
GCATGTAGCT	1.03
TGCTTAAATA	1.02
TCGAACACGA	1.05
ATATGTAGAC	0.981
GGAGAAAGTT	0.982
TACTTTTCCC	0.999
GAGCATCAGG	0.98
GGAACGCTT	1.04
CGACATTTAG	1.02

Sequence	switch fluorescence ratio
TTTGAAAAAC	1.02
CACCTGGGAG	1.02
GCATGTCGCG	1.01
ATGTTGTGCA	1.05
GCTCTTATCT	0.988
AATCGAGAAT	0.934
ATGAAGTCCA	1
AGATCCTTAG	0.976
TAATTTGGCC	0.996
AGAGGCTCTG	0.984
TCCTACAGGT	1.04
CCTGGGACCG	1.09
TCAAAAGCTG	0.972
CATGGGTATG	0.958
AGGACACTCG	0.935
TTCTTGGCAC	1.04
AGGATCCATC	0.994
TTTCAATAAG	1
ATATAGAGT	1.01
CGTGCTAGGG	1.01
CGCATCGGGG	1.09
CAAGAGTTTA	0.972
TAATGATATG	1
ATACTGGGAC	1.04
TGGTATCAGA	0.98

Sequence	switch fluorescence ratio
AAATCTGGTT	1.01
GCATAATTTG	1.02
TACCTTGCGG	1.04
ATAGGACTTT	0.993
CCTATTCTCG	1.02
TGCGGTTCAG	1
CTTGTTTTGC	0.992
TCGGGCGA	1.01
ACCTGGTCAC	1.03
CGGCGCGGAG	1.08
CAGTCGCGAC	0.994
CATTGAACCT	1.9
CAATTCATTT	1.14
CGGCTGTAGG	1.03
TTATTCAAGC	0.985
AACCTCACGA	1.38
TGTGTCACC	1
TACTACTAAT	1.05
ATAATGGACC	1.05
CGGGAACGTT	1.01
GTGCTAAATC	1.09
GCACCATGTC	1.03
AGGATGCACA	0.97
TCGGATCGTG	1.07
AGGGTTGGAT	0.995

Sequence	switch fluorescence ratio
GGAGGGTTCC	1.03
ATGCACTGT	1.03
TATCTGAT	0.986
TTGAGTAGCC	1.03
CAATGTTTCG	1
TCTATTTCGG	0.968
CGGTAGTTGC	1.04
TGGAGAGACT	1.06
TGTCGTAATG	0.979
AATGTTGTAG	1.02
ACAGAGCTTC	1.05
GGATCTCTGC	0.967
CTAGCTAGA	1.03
GCCCACAGAT	1.02
CAATCAAGCC	0.976
TTCTGAGAGA	1.03
CAGTTGTGGC	1.05
AACCAGCAAT	5.02
TTTGGGAAAC	1.01
CGTCTGCACG	1.03
GGGACTCGTT	1
GTACCAGCGC	1.01
TTTCGTCACA	1.53
CCCAGGTTTG	2.7
CACCTGACCC	1.34

Sequence	switch fluorescence ratio
TGGCCAATCT	1.04
ACGAGGTTAG	0.98
CAAACGAAAT	1.24
TCATTTTAAA	0.995
GGCATCCATG	0.979
AGAGCGTGGG	1.06
GGGCCCGGGG	0.967
GAGTTATCTC	0.99
GGATTATTAC	0.912
GACTCGTGTC	0.989
TCGTGGGGAA	1.01
AGTTAGAGAG	0.997
ATTTCCGCGC	2.81
TGTGATGCCT	0.922
GGCTTTACTT	0.988
TGTTAACCTC	1.02
TAAATCGACC	1.13
TCCGATCGGC	1.06
ACTGGAGTTC	0.976
ATGAAGGTCC	0.984
ACCTTTTGCT	1.01
AGAGCAGGAT	1.03
GAACGTGGAA	0.985
TCTGGATAA	1.04
GCCTGCTCCA	1

Sequence	switch fluorescence ratio
GTGTCATCGT	0.976
GTGCCATAAG	0.998
ATAATATGCT	0.981
CAGGACGACC	1.76
TATCCACCAG	1.24
AAAGCGGGCG	1.05
ACGCGAGTAG	1.03
AAACGCTCCA	1.06
GCCCCCCGTT	1.06
CTCCGAGTAA	2.91
AGGTAAGGTG	1.2
CCGGGGCCAC	1.16
TGCGCCCTGC	0.954
GAGATTCAAC	1.05
TTTCGTACCG	1
ATGGGTCCAT	1.02
GGGTCATATC	1.01
ACTGTTTAGT	0.968
ACCGAGTAGC	1.04
GTTACTCTT	1.03
AGTCCTACCT	1.18
CTGGTTGAAC	1.02
GTCCGTCCGG	0.954
AAGCACTCGA	1.21
GACTATAATG	1.05
